Results as given in PMC4336329 (PLoS ONE, 2015).
Hit rate of the full screen: of about 310,000 compounds, about 14,000 (4.5%) showed an effect of 50% or more. Effects have a minus sign here. This is one part of the list.

Biological target: human ether-à-go-go-related gene (hERG) potassium channel (human, UniProt Q12809)
Test: primary screen, population patch clamp on CHO cells stably expressing hERG
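Further: peak tail current of the secondary pulse compared with the same well before compound.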

Sequence of human ether-à-go-go-related gene (hERG) potassium channel (Q12809 whole entry, looked up): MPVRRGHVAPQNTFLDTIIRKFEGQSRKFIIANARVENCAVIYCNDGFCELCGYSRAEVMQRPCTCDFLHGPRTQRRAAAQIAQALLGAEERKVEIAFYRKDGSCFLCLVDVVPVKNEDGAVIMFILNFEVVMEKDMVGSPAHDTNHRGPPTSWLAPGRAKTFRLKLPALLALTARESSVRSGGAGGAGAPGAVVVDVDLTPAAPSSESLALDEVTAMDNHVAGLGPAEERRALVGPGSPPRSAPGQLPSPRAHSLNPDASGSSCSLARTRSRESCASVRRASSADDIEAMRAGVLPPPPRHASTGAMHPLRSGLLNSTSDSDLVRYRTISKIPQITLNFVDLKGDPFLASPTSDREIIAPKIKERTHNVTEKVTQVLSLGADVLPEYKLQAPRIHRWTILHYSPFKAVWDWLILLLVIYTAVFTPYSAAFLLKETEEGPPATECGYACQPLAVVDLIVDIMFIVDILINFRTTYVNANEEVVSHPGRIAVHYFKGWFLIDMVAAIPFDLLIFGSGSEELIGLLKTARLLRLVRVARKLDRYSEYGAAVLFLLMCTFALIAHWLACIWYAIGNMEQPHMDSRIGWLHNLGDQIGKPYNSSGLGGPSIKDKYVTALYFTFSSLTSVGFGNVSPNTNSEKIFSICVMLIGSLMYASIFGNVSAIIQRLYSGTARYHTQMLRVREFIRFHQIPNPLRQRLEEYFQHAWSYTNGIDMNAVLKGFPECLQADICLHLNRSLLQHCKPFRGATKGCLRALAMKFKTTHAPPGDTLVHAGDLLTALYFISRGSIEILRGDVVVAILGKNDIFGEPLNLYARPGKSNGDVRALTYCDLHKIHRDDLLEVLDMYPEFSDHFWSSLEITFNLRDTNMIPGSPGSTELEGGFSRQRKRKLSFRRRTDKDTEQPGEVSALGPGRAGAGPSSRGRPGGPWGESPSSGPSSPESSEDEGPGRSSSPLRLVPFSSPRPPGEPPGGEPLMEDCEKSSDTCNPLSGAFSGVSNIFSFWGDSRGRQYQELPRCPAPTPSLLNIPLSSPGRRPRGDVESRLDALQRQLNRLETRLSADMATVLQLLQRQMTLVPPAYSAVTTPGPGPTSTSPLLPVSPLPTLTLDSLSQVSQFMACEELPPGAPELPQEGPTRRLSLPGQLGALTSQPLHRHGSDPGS

Compound | hERG current change (%, negative = inhibition) at 10uM [%]
Cc1cnc(C(=O)OCC(=O)c2ccc(C3CCCCC3)cc2)cn1 | -1.88
O=C(CCC1CCN(Cc2ccccc2Cl)CC1)NC1CC1 | -23.2
O=C(Nc1cc(Cl)ccc1F)C1=COCCO1 | 17
COc1ccccc1Nc1nc(N)nc(CSC(=S)N2CCCCC2C)n1 (stereo not shown) | -5.64
CCOC(=O)C(NC(C)=O)C(=O)Nc1ccc(OC)cc1 (stereo not shown) | 11.6
CSC1=NCCN1C(=O)c1c(-c2ccccc2Cl)noc1C | -0.666
CSc1ccc(CNC2CN3CCC2CC3)cc1.Cl (stereo not shown) | -10.7
Cc1cc(Nc2cc(F)ccc2C)n2nc(C)nc2n1 | -2
Fc1cccc(-c2cc3nc(-c4ccccc4)cc(N4CCC5(CC4)OCCO5)n3n2)c1 | 7.68
NC(=O)Nc1ccc(Oc2c(F)c(F)c(F)c(F)c2F)cc1 | -11.5
CC(C)(C)CC(C)(C)N=C1NS(=O)(=O)c2cc([N+](=O)[O-])ccc21 | 9.73
CCOC(=O)C(Sc1cc(C)nc(N)n1)C(C)=O (stereo not shown) | 12.4
O=C(COC(=O)CCc1c[nH]c2ccccc12)NC(c1ccccc1)c1ccccc1 | 1.23
CC(C)N1CCN(Cc2ccc(OCc3ccccc3)cc2)CC1CCO (stereo not shown) | -51.6
Cc1ccc(C)c(-c2cc(C(=O)Nc3cccnc3)c3ccccc3n2)c1 | -61
COC(=O)Nc1ccc(S(=O)(=O)Nc2ccc(C(=O)O)cc2)cc1 | 17.4
CCCOc1ccc(N/C=C/C(=O)c2cc(OC)c(OC)c(OC)c2)cc1 | 11.6
COc1ccc(OC)c(/C=C/C(=O)OCC(=O)Nc2ccc3c(c2)OCCO3)c1 | 15.9
O=C(NNC(=O)c1nn(-c2ccc(F)cc2)ccc1=O)Nc1cccc(Cl)c1 | 13.6
COc1cc(C(=O)Nc2ccc3c(c2)OCO3)c([N+](=O)[O-])cc1OC | 9.96
Cn1c(CN2CCCC2)nc2cc(NC(=O)C3CCCCC3)ccc21 | -4.77
COc1ccc(OC)c(N(CC(=O)NCCSc2ccccc2)S(C)(=O)=O)c1 | -32.7

Compound | hERG current change (%, negative = inhibition) at 10uM [%]
CCC(=O)OCCNc1cc(SCCC(=O)OC)c2nonc2c1[N+](=O)[O-] | -48.9
Cc1cc2oc(C(=O)NCc3ccc4c(c3)OCO4)c(C)c2cc1C | 9.91
CCC(C)(C)NC(=O)CN(C(=O)c1snc(C(N)=O)c1N)c1ccc2c(c1)OCO2 | -7.73
O=C(CCS(=O)(=O)c1cccs1)N1CCN(c2ccc(F)cc2)CC1 | -41
COC(=O)c1nn(-c2ccccc2)c(Cl)c1/C=N/OCc1ccc(C)cc1 | 20.3
Cc1ccc(S(=O)(=O)CC(=O)Nc2cc(C)on2)cc1 | 16.5
O=C(COC(=O)c1ccc([N+](=O)[O-])o1)Nc1nc2ccccc2s1 | -10.6
COC(=O)Nc1nc(C)c(C(=O)c2ccccc2)s1 | -11.5
Cc1ccc(C)c(NC(=O)CN(C)C(=O)c2nn(C)c(=O)c3ccccc23)c1 | 9.87
Cc1ccc(NC(=O)CN(C)C(=O)CCC(=O)c2cccs2)cc1 | -16.2
CCOC(=O)N1CCN(C(=O)Cn2c(C)cc3ccccc3c2=O)CC1 | 3.68
CCOC(=O)C1=C(C)OC(N)=C(C#N)C1c1ccccc1 (stereo not shown) | 4.65
Cc1ccc(-n2c(Cc3cccn3C)nnc2SCC(=O)Nc2cc(C)on2)cc1 | -12.7
COc1ccc(CCC(=O)OCC(=O)Nc2sccc2C(N)=O)cc1 | -5.4
COC(=O)c1c(NC(=O)COC(=O)CNC(=O)C2CCCCC2)sc(C)c1C | -0.867
CC(c1ccc(F)cc1)n1c(Cn2ncc3ccccc3c2=O)n[nH]c1=S (stereo not shown) | 5.35
CCOC(=O)CSc1nc2sc3c(c2c(=O)[nH]1)CC(C)(C)OC3 | 0.154
Cc1c(NC(=O)c2ccccc2)c(=O)n(-c2ccccc2)n1C | -3.48
Cc1[nH]n(-c2ccccc2)c(=O)c1N=Nc1ccccc1C(=O)O | 1.85
CCn1c(=O)cc(N2CCOCC2)[nH]c1=O | 0.84
COc1ccccc1N1CCN(C(=O)c2oc3cc(C)cc(C)c3c2C)CC1 | 10.6
Cc1c(/C(O)=C2/C(=O)C(=O)N(CCN3CCOCC3)C2c2ccccn2)cnn1-c1ccccc1 (stereo not shown) | 10.9

Compound | hERG current change (%, negative = inhibition) at 10uM [%]
CCCC(NC(=O)C(C)N1CCN(S(=O)(=O)c2ccccc2)CC1)c1ccccc1 (stereo not shown) | -27.8
CCOC(=O)CSc1nc(-c2ccccc2)cc(C(F)(F)F)n1 | 2.66
O=C(Cn1cnc2ccccc2c1=O)c1ccc(Br)cc1 | 6.72
COc1ccc(N=C2SC(C(=O)Nc3ccc(F)cc3)CC(=O)N2C)cc1 (stereo not shown) | 1.3
O=C1CSc2ccc(S(=O)(=O)NCc3ccccc3)cc2N1 | -5.59
Cc1cc(Br)ccc1SCC(=O)OCC(=O)c1c(N)n(C)c(=O)n(C)c1=O | -36.6
COc1ccc2c(c1OC)C(=O)OC2CC(=O)c1ccc2c(c1)OCO2 (stereo not shown) | -1.72
CCOC(=O)c1sc(N2N=C(C)C(N=Nc3cccc(C)c3)C2=O)nc1C (stereo not shown) | -24.2
CN(C(=O)c1ccccc1)C1c2c(ccc3ccccc23)OCC1CO (stereo not shown) | 6.62
O=C(Nc1nnc(-c2ccccc2)o1)C1CCCCC1 | 9.78
O=C(c1ccco1)N1CCN(c2nc(C3CC3)nc3c2nnn3Cc2ccccc2Cl)CC1 | 12.2
COC(=O)Cc1[nH]nc2c1C(C1C=CCCC1)C(C#N)=C(N)O2 (stereo not shown) | -7.32
CCOC(=O)C(C)(C)Oc1ccc(Cl)cc1 | 9.36
O=[N+]([O-])c1ccc(N2N=C(c3ccco3)CC2c2ccccc2)cc1 (stereo not shown) | 6.27
O=C(Nc1cccc(S(=O)(=O)N2CCOCC2)c1)C(c1ccccc1)N1CCCCC1 (stereo not shown) | -37.9
COc1ccc(CC(=O)Nc2cccc(C(=O)O)c2C)cc1 | 11.3
Cc1nc(S/C(=C/c2ccc(-c3ccc(C(=O)O)cc3)o2)C(=O)O)n[nH]1 | -11.4
Cc1cc(NC(=O)Cc2ccccc2[N+](=O)[O-])no1 | 3.29
O=C(Nc1ccccc1C(=O)O)c1ccc(Cl)c(S(=O)(=O)N2CCOCC2)c1 | 8.11
Cn1c(C(C#N)C(=O)Cc2cccc3ccccc23)nc2ccccc21 (stereo not shown) | 5.85
CC(CCc1ccccc1)NC(=O)CNC(=O)c1cccs1 (stereo not shown) | -5.72
O=S(=O)(NCc1ccncc1)c1ccc(Br)s1 | 0.699

Compound | hERG current change (%, negative = inhibition) at 10uM [%]
N#C/C(=C\c1ccc(Cl)c([N+](=O)[O-])c1)c1ccccn1 | 27
CC(=O)N1N=C(N)SC1c1cccc([N+](=O)[O-])c1 (stereo not shown) | -6.38
COc1ccc([N+](=O)[O-])cc1NC(=O)c1ccc(N(Cc2ccccc2Cl)S(C)(=O)=O)cc1 | -10.2
S=c1[nH]nc(-c2cc(-c3ccccc3)n[nH]2)n1/N=C/c1c(Cl)cccc1Cl | 28.2
COc1ccc(CNc2nc(-c3cccnc3)nn2C(=O)c2cccs2)cc1 | 1.11
COc1ccc(Cl)cc1NC(=O)Cn1c(NCCO)nc2ccccc21 | 21.4
O=C(NCc1cccnc1)/C(=C/c1ccc(-c2cccc(Cl)c2)o1)S(=O)(=O)c1ccccc1 | -26.2
O=C(NCc1ccc2c(c1)OCO2)C1CC(=O)N(CCc2ccccc2)C1 (stereo not shown) | 3.54
COc1ccc(CCC(=O)Nc2ccc(N3CCOCC3)cc2)cc1 | -12.9
CCOc1ccc2nc(SCC(=O)N3c4ccccc4Sc4ccccc43)sc2c1 | 13.6
C=CCn1c(CNC(=O)c2ccco2)nnc1SCC(=O)c1ccc(OC)cc1 | -18.3
CCC(C)NC(=O)N[C@@H](CCSC)C(=O)OC (stereo partly shown) | -0.195
C[C@H](N)c1nnc(SCC(N)=O)o1.Cl | -7.03
C=CCn1c(SCC(=O)c2ccc(OC)cc2)nnc1-c1cc2cccc(OC)c2o1 | 25.8
COc1ccc(NC(=O)CSc2nnc(-c3cccs3)n2Cc2ccco2)cc1OC | -60.6
CC(C(=O)NC(=O)NC1CCCCC1)N1CCN(c2ccccn2)CC1 (stereo not shown) | -15.9
NC(=O)COc1ccc2oc(=O)cc(-c3cc4ccccc4o3)c2c1 | 7.27
CC1CCc2sc(C(=O)NC(C)C3CCCO3)cc2C1 (stereo not shown) | -15.7
CSc1ncc(CN2CCN(CC=C(C)C)C(CCO)C2)cn1 (stereo not shown) | 4.77
C=CCn1c(N)cc(=O)nc1SCC(=O)Nc1ccc(C(=O)OCC)cc1 | 29.7
CC(C)O.COC(=O)Nc1ccc2c(c1)N(C(=O)CCN1CCN3CCCC3C1)c1ccccc1CC2.Cl.O (stereo not shown) | 1.43
CC(=O)NC1C(=O)N=C(SCC(=O)NCc2ccccc2)NC1=O (stereo not shown) | -21.6
